Consider 19 compounds from PubChem BioAssay AID1996.

The structures appear in SMILES notation. Values after ≈ are worked out from the molar mass of the structure shown.

The conditions of this series: buffer; pH 7.4; 200.0 µM.
For `Nc1c(SCCC(=O)O)ccc2c1C(=O)c1ccccc1C2=O`, the solubility (kinetic) (usually solubility judged after dilution from a stock solution rather than from solid) was above 49.1 µg/mL.
`O=C(Nc1nc2cc3c(cc2s1)OCCO3)c1ccncc1` returned a solubility (kinetic) of 3.6 µg/mL (≈ 11.5 µM).
In turn, `CCCC(=O)Nc1ccc2c(c1)nc1n2CCN(C2CCCCC2)C1` yielded a solubility (kinetic) of 41 µg/mL (≈ 120 µM).
The compound `Cc1ccc(C(=S)N2CCCCCC2)cc1` gave a solubility (kinetic) of 23.4 µg/mL (≈ 100 µM).
`Cc1cccc(C(=O)NCCC(=O)Nc2ccc(C)c(F)c2)c1`: the kinetic solubility stood at 2.2 µg/mL (≈ 7 µM).
With `CCOC(=O)c1cc(CC)sc1/N=C/C1C(=O)NC(=S)NC1=O`, the kinetic solubility was found to be 5.8 µg/mL (≈ 16.4 µM).
Take `CCCC1CC(C(=O)NC(C(C)Cl)C2OC(SC)C(O)C(O)C2O)N(C)C1` (centres undefined): the solubility (kinetic) was above 63.7 µg/mL.
Consider `Cc1ccc2nc(-c3ccccc3)cc(C(=O)NCC3CCCO3)c2c1` (centres undefined), for which the solubility (kinetic) was 15.2 µg/mL (≈ 43.9 µM).
`O=C(Nc1nc2ccccc2c(=O)s1)c1ccco1` came in with a solubility (kinetic) of 2.6 µg/mL (≈ 9.55 µM).
Turning to `COc1ccc(CNc2ncnc3cc(Cl)ccc23)cc1`, the kinetic solubility was 0.6 µg/mL (≈ 2 µM).
As for `CCCc1c(O)nc(SC2CC(=O)N(c3ccc(C)c(Cl)c3)C2=O)[nH]c1=O` (centres undefined), the solubility (kinetic) was 47 µg/mL (≈ 115 µM). This solubility kinetic lies about 78-fold higher than the previous one.
The compound `COc1ccc(OC)c(S(=O)(=O)N2CCN(c3ccc(F)cc3)CC2)c1` had a kinetic solubility of 14 µg/mL (≈ 36.8 µM).
Then `Cc1cc(Cl)ccc1C(=O)C1CCCN(C(=O)c2cscn2)C1` (centres undefined), with above 52.3 µg/mL; and `CCOC(=O)C1CCCN(CC(=O)N(C)c2c(N)n(Cc3ccccc3)c(=O)[nH]c2=O)C1` (centres undefined), with above 66.5 µg/mL; and `COc1ccc(CNC(=O)CCC(=O)c2ccccc2)cc1`, with above 44.6 µg/mL.
Consider `C=CCN1C2CCCC1CC(NC(=S)Nc1cccc(OC)c1)C2` (centres undefined), for which the kinetic solubility was above 51.8 µg/mL.
The compound `N#CCOc1ccccc1P(=O)(c1ccccc1)c1ccccc1` yielded a solubility (kinetic) above 50 µg/mL.
The compound `O=C(c1cccc([N+](=O)[O-])c1)C12CN3CN(CN(C3)C1)C2` showed a kinetic solubility above 43.2 µg/mL.
For `COc1ccc(Nc2nc(N)nc(CCl)n2)cc1`, the solubility (kinetic) is above 39.9 µg/mL.
